Results: PubChem BioAssay AID1963576 (National Center for Advancing Translational Sciences (NCATS), 2024)
Screen size: about 46,000 compounds; about 60 (0.1%) were called active. About 3% were inconclusive and are not listed. Calls follow the shape of the dose curve; as a rule, active = well fitted inhibition curve with a large enough effect; inconclusive = small, poorly fitted or top-dose-only effect; inactive = no such curve, though single readings can be large or run the other way. The list shows a part of the results.

Assay: Primary qHTS assay for Inhibitors of ovarian cancer metastasis using an organotypic tumor microenvironment (TME) model. Also: nearly all actives have a fitted effect of over 65% in size.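 As to activity change, negative = inhibition: plate controls were DMSO wells for no effect and tomatine positive control wells for full effect.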
Details: SKOV3ip1-GFP adhesion/invasion on 3D omental model, fluorescence; series mostly up to 45.8 µM; activity change, negative = inhibition: at the top concentration
How it was run: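 A 3D layer of primary human omental fibroblasts, mesothelial cells, fibronectin and collagen I, grown 48 hr, received SKOV3ip1-GFP cells in serum-free medium plus compounds at 0.36-46 umol/L. After 2 hr RT and 16 hr 37 C, fixed adherent GFP cells were counted; normalized to DMSO and tomatine.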

outcome, inactive:
CCCSc1ncc(Cl)c(C(=O)N(Cc2ccc(Cl)cc2)Cc2ccco2)n1
CCC1CCCCN1S(=O)(=O)c1cc2c3c(c1)CC(=O)N3CCC2 (stereo not given)
Cc1c(C(=O)N(C)C)sc2c1c(=O)n(-c1ccc(Cl)cc1)c(=O)n2CC(=O)C(C)(C)C
Cc1cc(NC(=O)c2cc(-c3cccc(Cl)c3)on2)n(-c2ccccc2)n1
COc1ccc(-c2noc(-c3ccc(NCc4cccnc4)c([N+](=O)[O-])c3)n2)cc1OC
CC(=O)c1ccc(NC(=O)CCc2c(C)nn(-c3ccc(N4CCOCC4)nn3)c2C)cc1
O=c1c2sc3ccccc3c2n(Cc2cccc(Cl)c2)c(=O)n1Cc1ccco1
Cc1ccc(N2CCN(C(=O)C3CCN(S(=O)(=O)c4ccc5c(c4)oc(=O)n5C)CC3)CC2C)cc1 (stereo not given)
CCCn1c(CN2CCN(c3ccc(OC)cc3)CC2)nc2c1c(=O)[nH]c(=O)n2C
CC(C)CC(=O)Nc1nnc(S(=O)(=O)N(CC(C)C)c2ccccc2)s1
COc1ccc(C(=O)Nc2cc3c(cc2C(=O)c2ccccc2Cl)OCCO3)cc1
O=C(CCOc1ccccc1)N(Cc1cccnc1)c1nc2c(F)cc(F)cc2s1
COc1ccc(NC(=O)Cn2c(=O)n(Cc3ccco3)c(=O)c3sc4ccccc4c32)cc1Cl
CCOc1ccccc1CNC(=O)CCc1cn(C)c2ccccc12
CCc1cccc(NC(=O)CN2C(=O)COc3ccc(S(=O)(=O)N4CCC(C)CC4)cc32)c1
Cc1ccc(CCNC(=O)c2cc3ccccn3n2)cc1
COc1cccc(-n2c(C)nc3c(cnn3-c3ccc(C)c(C)c3)c2=O)c1
Cc1ccc(Cn2c(C)c3cnn(CC(=O)N4CCN(c5cc(C)ccc5C)CC4)c(=O)c3c2C)cc1
COc1ccc(NC(=O)Cn2c(=O)n(Cc3ccccc3Cl)c(=O)c3cc(OC)c(OC)cc32)cc1

Activity change, negative = inhibition, inactive:
CCc1ccccc1NC(=O)Cn1c(=O)ccc2cc(S(=O)(=O)N3CCCC3)ccc21 63%
CCC(C(=O)O)n1ccc2cc(S(=O)(=O)N3CCCCC3)ccc21 (stereo not given) 3.46%
CCOC(=O)c1c(C)[nH]c(C)c1S(=O)(=O)N1CCC(C(=O)NCc2cccc(OC)c2)CC1 -9.02%
COc1ccc(S(=O)(=O)N2Cc3ccccc3CC2C(=O)Nc2ccc(C)cc2C)cc1OC (stereo not given) -1.88%
Cc1ccc(NC(=O)Cn2nc(N3CCN(c4ccccc4)CC3)ccc2=O)cc1F 3.23%
COc1ccc(-n2c(=O)c3sc4ccccc4c3n(Cc3ccccc3C)c2=O)cc1OC 46.5%
COc1ccc(C(=O)c2c(N)c(C(=O)Nc3cccc(OC)c3)c3ccccn23)cc1 2.39%
CCOc1ccc(C2=CC(c3cccc(Br)c3)n3c(nc4ccccc43)N2)cc1Cl (stereo not given) 0.867%
Cc1cc(C)cc(-n2c(C)nc3cc(C(=O)O)ccc32)c1 -3.35%
Cc1cc(C)c(S(=O)(=O)NCCc2cc3ccc(C)c(C)c3[nH]c2=O)c(C)c1 -16.6%
Cc1cccc(OCc2nc(CC(=O)Nc3ccc(C)c(C)c3)cs2)c1 -1.9%
CCOc1ccc(NC(=O)C2CCN(C(=O)N3CC(C)Oc4ccc(Cl)cc43)CC2)cc1 (stereo not given) -1.63%
COc1cc(-c2cc3n(C)c(C)c(CCC(=O)O)c(=O)n3n2)cc(OC)c1OC -19.1%
Cc1ccc(CNC(=O)CCC(=O)N2CC3CCCN3c3ccccc32)cc1 (stereo not given) 0.0577%
Cc1cc2oc(C(=O)Nc3ccc(S(=O)(=O)N(C)Cc4ccccc4)cc3)cc(=O)c2cc1C 0.963%
Cc1c(CNC2CCCCC2)c(C(=O)O)c(C)n1Cc1c(F)cccc1Cl 8.83%
Cc1ccc(NC(=O)CCCn2c(=O)c3cccn3c3ccccc32)c(Cl)c1 7.31%
COc1ccccc1N1CCN(c2ccc(NC(=O)c3ccc(C)cc3)cc2C(=O)O)CC1 10%
COc1cc(OC)c(NC(=O)c2csc3c2CCC(C)C3)cc1Cl (stereo not given) 19.8%
CCOc1ccccc1NC(=O)Cn1c(=O)n(CCC(=O)NCc2ccc3c(c2)OCO3)c(=O)c2ccccc21 -0.566%
COc1ccc(CCNC(=O)CCc2c(C)nc3c(c(C)nn3-c3ccc(C)c(C)c3)c2C)cc1OC 74.3%
COc1ccccc1CNC(=O)c1cc2cc3ccc(Cl)cc3nc2o1 -1.32%
CCc1ccccc1N1CC(c2nc3ccccc3n2CCCOc2ccc(Cl)cc2)CC1=O (stereo not given) -7.38%
Cc1cc(Cl)ccc1NC(=O)c1cccc(NC(=O)N2CCSc3ncccc32)c1 -4.73%
O=C(CSC1=Nc2ccccc2C2=NC(CCC(=O)NC3CCCCC3)C(=O)N12)Nc1cccc(C(F)(F)F)c1 (stereo not given) -20.6%
COc1ccc(CNC(=O)c2cnc3sc(N4CCOCC4)nn3c2=O)cc1 3.39%
COc1cc(OC)c(NC(=O)N2CCSc3ccccc32)cc1Cl -0.759%
Nc1nnc(SCC(=O)Nc2ccc(Cl)cc2)s1 10.3%
CCOc1ccc(NC(=O)C(CC)n2c(=O)c(-c3ccccc3NC(C)=O)nc3ccccc32)cc1 (stereo not given) -0.582%
Cc1ccc(CNC(=O)Cn2cc(S(=O)(=O)Cc3ccccc3Cl)c3ccccc32)cc1 -16.2%
COc1ccccc1OCCSc1nc(-c2ccc(C(C)(C)C)cc2)nc2cc(=O)[nH]n12 -7.41%
CCOc1ccc(C(=O)N2CCC(c3nnc(-c4ccccc4OC)o3)CC2)cc1 -4.77%
O=C(CCc1ccccc1)NCc1nc2cccnc2n1Cc1ccc(F)cc1 0.148%
N#Cc1ccccc1CN1C(=O)c2ccccc2Sc2ccc(C(=O)OCc3ccco3)cc21 -18.2%
CCNC(=O)CC1C(=O)N(c2ccc(F)cc2)C(=O)N1CCOC (stereo not given) 4.6%
COc1ccccc1CNC(=O)c1ccc(Cn2c(SCc3ccccc3)nc3cccnc32)cc1 4.29%
Fc1ccc(-n2ncc3c(NC4CCCCCC4)ncnc32)cc1 -0.55%
CCOC(=O)c1c(NC(=O)CCCOc2ccccc2C)sc2c1CCC(C)C2 (stereo not given) 2.49%
CCOc1ccc(NC(=O)CCc2c(C)nc3nc(C)nn3c2C)cc1 4.22%
COC(=O)C(CCSC)NC(=O)C1CCN(c2ncnc3c2nc2n3CCCCC2)CC1 (stereo not given) 6.07%
CCOC(=O)c1c(C)oc2nc(C)nc(NCCCN3CCN(c4ccccc4)CC3)c12 -3.81%
CCOc1ccc(OCC)c(NC(=O)c2cc(S(=O)(=O)N3CCCC3)cn2C)c1 1.24%
COc1ccc(NC(=O)CN2CCN(Cc3ccccc3)S2(=O)=O)c(OC)c1 -3.95%
CCOC(=O)N1CCc2c(sc3c2c(=O)n(-c2ccccc2)c(=O)n3CC(=O)Nc2ccc(OC)cc2OC)C1 -2.15%
O=C(Nc1ccc(Cl)cc1)c1ccc2c(c1)N(Cc1ccccc1)CCS2 9.01%
O=c1c(-c2ccc(O)cc2)coc2cc(OC3O[C@H](CO)[C@H](O)[C@H](O)[C@H]3O)cc(O)c12 (stereo not given in full) -37.6%
CC(C)c1ccc(NC(=O)CN2C(=O)C3(SCC(=O)N3c3ccc(F)cc3)c3ccccc32)cc1 (stereo not given) -0.358%
Cc1ccc(N2CCn3c2nc2c3c(=O)n(Cc3cccc(Cl)c3)c(=O)n2C)cc1C 4.17%
Cc1nc(CC(=O)Nc2ccc(C(N)=O)cc2)cs1 3.89%
CCSC1=NC2(CCN(C(=O)NC3CCCCC3)CC2)N=C1c1ccc(OC)cc1 0.229%
CCCOc1ccc(CC2C(=O)Nc3ccc(Br)cc32)cc1 (stereo not given) -25.5%
CCN(C(=O)CSc1nc2ccccc2nc1Cc1ccccc1OC)c1ccccc1 -11.8%
O=C(CN1C(=O)CCSc2ccc(S(=O)(=O)N3CCCC3)cc21)Nc1ccccc1Cl 3.18%
CCCC12CN3CC(CCC)(CN(C1)C3c1c[nH]c3ccc(OC)cc13)C2=O (stereo not given) 0.649%
CCOCCCNC(=O)C(c1ccc(OC)cc1)N(Cc1cccs1)C(=O)CNC(C)=O (stereo not given) 16.5%
CC(=O)Nc1ccc(S(=O)(=O)NC2(C(F)(F)F)C(=O)Nc3c2c(=O)[nH]c(=O)n3-c2ccc(C)cc2)cc1 (stereo not given) -0.347%
Cc1ccc(C(=O)CC2(O)C(=O)N(CCc3ccccc3)c3ccc(Br)cc32)cc1 (stereo not given) -2.27%
O=c1oc2ccc(Cl)cc2cc1-c1nc(-c2cccs2)no1 -8.45%
CCOC(=O)c1cc2c(=O)n3ccccc3nc2n(CCCOC)c1=NC(=O)c1cc2ccccc2o1 0.314%
Cc1ccc(-n2nc3c(N4CCCC(C(=O)NCc5ccccc5C)C4)nnc(C)c3c2C)cc1 (stereo not given) -1.11%
CCOc1cc2[nH]c(=O)n(CCC(=O)N3CCN(c4ccccc4)CC3)c(=O)c2cc1OCC -6.44%
COC(=O)c1c(NC(=O)CS(=O)(=O)c2ccc(C)cc2)sc2c1CCCCC2 -8.34%
O=C(c1ccc(Cl)cc1)n1nc(-c2ccccc2)nc1NCc1ccco1 -6.29%
CCCn1c(=N)c(C(=O)NC(C)c2ccccc2)cc2c(=O)n3ccccc3nc21 (stereo not given) 8.89%
Cc1ccc2scc(N3CCCC(C)C3)c(=O)c2c1 (stereo not given) 8.48%
Cn1c(=O)n(C)c2cc(CNCc3ccccc3Cl)ccc21 0.369%
COc1cccc(C(=O)NCc2cn3cccc(C)c3n2)c1 4.63%
Cc1c(Cl)cccc1-n1ncc(C(=O)NC2CCCC2)c1C1CCN(C(=O)OC(C)(C)C)CC1 6.89%
Cc1ccc(NC(=O)N2CCN3CCCCC3C2)cc1C (stereo not given) -3.84%
COc1ccc2c(c1)c1c(c(=O)n(-c3cc(Cl)ccc3C)c(=O)n1Cc1ccc(F)cc1)n2C 3.68%
CC(C)c1ccc(NC(=O)CSC2=Nc3ccccc3C3=NC(CCC(=O)NCc4cccs4)C(=O)N23)cc1 (stereo not given) -1.35%
CCOc1ccc(S(=O)(=O)Nc2cc3c(C(=O)OCc4ccccc4)c(C)oc3c3ccccc23)cc1 -28%
CCOc1ccc(NC(=O)c2nn(C)c3c2COc2ccccc2-3)cc1 4.92%
COc1cccc(NC(=O)CSc2nc(=O)[nH]c3c2CCCC3)c1 -1.31%
COc1ccc(-c2[nH]c(-c3ccc(C)cc3)nc2SCC(=O)NCC2CCCO2)cc1 (stereo not given) -9.33%
CC(=O)c1c(C)n(-c2cccc(Cl)c2)c2ccc(OC(=O)c3ccccc3)cc12 -1.01%
